The supplement of paper PMC3334620
The full ranking holds about 33,000 sequences; the median of “E-score (-0.5 to 0.5)” is about -0.041, and the highest 2% start at about 0.37. This is one part of the list.

The sequences below were run against T1, Ecm22 (UniProt Q05958) (assay: PBM E-score (8-mer binding enrichment) (E-score (-0.5 to 0.5)); higher = stronger / more preferred TF binding; most listed sequences are background and not binding sites). Conditions: protein concentration: 200 nM; construct: GST-full length.
T1 sequence: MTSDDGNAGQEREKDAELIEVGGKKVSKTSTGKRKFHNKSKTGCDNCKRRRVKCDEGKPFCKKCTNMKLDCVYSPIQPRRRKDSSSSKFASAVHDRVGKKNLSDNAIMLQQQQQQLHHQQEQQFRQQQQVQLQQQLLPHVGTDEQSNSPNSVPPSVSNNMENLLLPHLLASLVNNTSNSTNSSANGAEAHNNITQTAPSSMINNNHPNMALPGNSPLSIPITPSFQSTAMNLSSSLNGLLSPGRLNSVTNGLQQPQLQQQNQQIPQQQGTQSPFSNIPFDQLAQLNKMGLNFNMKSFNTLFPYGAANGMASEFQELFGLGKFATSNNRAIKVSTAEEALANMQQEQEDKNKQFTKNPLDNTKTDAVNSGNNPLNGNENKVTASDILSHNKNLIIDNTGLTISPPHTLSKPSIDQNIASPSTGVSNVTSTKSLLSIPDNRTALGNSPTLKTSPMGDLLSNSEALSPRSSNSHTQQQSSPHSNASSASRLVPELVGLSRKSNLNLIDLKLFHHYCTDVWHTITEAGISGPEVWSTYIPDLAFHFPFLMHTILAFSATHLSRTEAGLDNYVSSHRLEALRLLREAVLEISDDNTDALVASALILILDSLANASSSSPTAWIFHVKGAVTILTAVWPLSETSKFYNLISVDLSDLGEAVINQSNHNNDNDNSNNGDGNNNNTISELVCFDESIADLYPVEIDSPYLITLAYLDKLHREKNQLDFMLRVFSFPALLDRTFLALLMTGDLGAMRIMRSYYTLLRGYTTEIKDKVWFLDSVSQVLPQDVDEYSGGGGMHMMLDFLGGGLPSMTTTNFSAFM
Protocol: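 Universal 'all 10-mer' protein binding microarrays (Agilent AMADID 015681) probed with GST-tagged S. cerevisiae TFs (full-length or DBD) made by in vitro transcription/translation (PURExpress), about 100-200 nM. Bound TF was detected with fluorescent anti-GST. Each ungapped 8-mer (which stands for itself and its reverse complement) is scored by the PBM enrichment score (E-score), a modified Wilcoxon-Mann-Whitney statistic from -0.5 to +0.5, computed with the Universal PBM Analysis Suite. Scale: above 0.35 generally sequence-specific binding.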

| Sequence | PBM E-score |
| --- | --- |
| AAGCACTC | -0.108 |
| ACATCTTA | -0.148 |
| AATTTCAC | -0.0785 |
| ACTCGTCT | 0.172 |
| CGCATAGC | 0.208 |
| ACACTGTC | -0.0828 |
| ACGAAGAT | 0.356 |
| TCGGGGAA | 0.0444 |
| CCCACGAC | -0.242 |
| CGGGTTAG | 0.0278 |
| CCAACTCC | 0.012 |
| AATTGAGC | -0.113 |
| CGAGGGAA | 0.231 |
| CTATTGGC | -0.0898 |
| GGGAACAA | 0.143 |
| GAGTGAGC | -0.1 |
| AAGGTCAG | -0.208 |
| AGTCCGCG | -0.115 |
| ACTGTACT | -0.12 |
| ATCATGTC | 0.0643 |
| ATAATAGG | -0.0448 |
| CTCTATTA | -0.0358 |
| CAGAGGGG | -0.249 |
| AAGGCTAG | -0.0859 |
| CGTTGGCC | -0.151 |

| Sequence | PBM E-score |
| --- | --- |
| ACCCTGTA | -0.145 |
| CTATTTTA | -0.0646 |
| ATCGTTAA | 0.403 |
| CCAACAAG | -0.194 |
| GTAATGTA | -0.14 |
| CCTGGTAC | 0.11 |
| AGTGGTCC | -0.104 |
| CGTTACAG | 0.169 |
| GTTACACA | -0.0371 |
| AGGGTTCA | -0.224 |
| CAACTCTC | -0.11 |
| CCAATCCC | -0.114 |
| ACTATCTC | -0.0244 |
| CGTATGTC | 0.342 |
| AAGTTAAC | 0.132 |
| CAGTGCAA | -0.0245 |
| GTTTCTAA | 0.211 |
| TACACCCA | -6e-05 |
| CAAATTTG | 0.129 |
| GTTTACTA | 0.182 |
| GGCGTTTA | 0.166 |
| CACCATAC | 0.13 |
| GTTGACGA | -0.0872 |
| ATAAATTA | 0.326 |
| ACCAGTCA | -0.218 |

| Sequence | PBM E-score |
| --- | --- |
| CTATCAAC | 0.0893 |
| GCTTCCCA | 0.00671 |
| TTAATGAA | 0.0772 |
| CTATGCTA | -0.116 |
| AAAGCTTC | -0.111 |
| ATATCGAT | 0.136 |
| ATGTTGAC | -0.0435 |
| CAGGGGGA | -0.365 |
| GAGTCTAC | -0.0119 |
| CCTACACG | -0.0384 |
| CCTTGCGC | -0.158 |
| CCAAAGGG | -0.183 |
| ACAGCAGA | 0.152 |
| GGACATCC | -0.143 |
| AGCTCCCC | -0.165 |
| ACATATGT | -0.0583 |
| CGATCTGA | 0.0252 |
| ACAGCGGC | -0.036 |
| ACGGTGTC | 0.106 |
| GACCGCTC | -0.0038 |
| CTCTCCAG | -0.235 |
| CCGGCTTA | -0.171 |
| AAACCCGT | 0.0436 |
| CCCTACAG | -0.267 |
| GATTCAGA | -0.0139 |

| Sequence | PBM E-score |
| --- | --- |
| ATCTTCAC | -0.0804 |
| ACGCTTCA | -0.111 |
| AGGACAAA | 0.00676 |
| GCGCGATA | 0.114 |
| TGCAGAAA | 0.228 |
| GACCCTGA | -0.126 |
| AAACCGCA | -0.0384 |
| AGTAGGTG | -0.34 |
| TCGGGACA | -0.0251 |
| CATCTATC | -0.132 |
| CCCGGTTC | 0.0413 |
| CACGTTCA | -0.131 |
| AAATTGCA | 0.068 |
| ATTGAGTC | -0.162 |
| GTCTACGA | 0.304 |
| AGTTGTCC | -0.0556 |
| GTCTAACA | -0.339 |
| GTACCGTA | 0.364 |
| CTCTATCA | -0.234 |
| GATTGGGC | -0.165 |
| GGAAAACA | -0.0128 |
| ACTGACCT | -0.0986 |
| CAAACGTA | 0.186 |
| AGGCTACC | -0.215 |
| ATGTTTTG | 0.0401 |

| Sequence | PBM E-score |
| --- | --- |
| CAGTACGG | 0.27 |
| GCTTGCCC | -0.293 |
| GCGTCAGC | -0.0491 |
| CGCTATAC | 0.337 |
| GTCTCAGA | -0.305 |
| CGATAAAC | 0.259 |
| GATTAATA | 0.0922 |
| TAAAACAA | -0.00922 |
| GGGGAATA | -0.213 |
| ATAACGAC | 0.203 |
| CCAACGAC | 0.0154 |
| ACCAGACC | 0.138 |
| GAGAATTA | -0.0719 |
| ACCTCCGG | -0.113 |
| AGAATCCA | -0.14 |
| GATTAGTA | 0.0853 |
| CGACTCGC | 0.284 |
| AAGATATT | -0.183 |
| GTATGTTA | 0.201 |
| CCGAAGCG | 0.13 |
| AAGGGAAA | -0.28 |
| ACGAGGCC | 0.376 |
| AACGGGGG | 0.167 |
| GCTTTCAC | -0.0514 |
| ACTTCCAC | -0.13 |

| Sequence | PBM E-score |
| --- | --- |
| ATGGTGTG | -0.0904 |
| ATGTTGCG | 0.0646 |
| CATACTAG | -0.0362 |
| AGGTACCA | 0.00827 |
| AGATCAAC | 0.024 |
| ATCTAAGC | -0.0203 |
| ATCCAACA | -0.157 |
| CCTGTATC | -0.0489 |
| GCCGAGTA | 0.0615 |
| ACTGTGCG | 0.0745 |
| ACCTCCGA | -0.0432 |
| ATTGTGTG | -0.164 |
| ACCGGTGA | 0.0428 |
| CACCCCCG | -0.2 |
| CCCACACG | -0.0368 |
| AGGTTTTG | -0.0614 |
| ATCTACCC | 0.0111 |
| CCATTACG | 0.0387 |
| GCCCTCCA | -0.252 |
| ACAACTGA | 0.096 |
| ACAACTCT | -0.0522 |
| AACACAAC | 0.183 |
| AAAGCAAT | -0.109 |
| GAAGCTAC | 0.0734 |
| AAATACCA | -0.0648 |

| Sequence | PBM E-score |
| --- | --- |
| TGTCCTAA | -0.0604 |
| AGAGTATC | 0.192 |
| GGATGGCA | 0.0441 |
| TACGTATA | 0.401 |
| AAGGGACA | -0.238 |
| GGCTTACA | -0.161 |
| GGGGCGAA | -0.169 |
| GCATTCTA | -0.0832 |
| CACCCCCA | -0.253 |
| CGAAAGGA | 0.057 |
| AAAGCACG | 0.119 |
| AAAGCGAG | 0.283 |
| AAGACCTG | -0.253 |
| CCAAACAC | 0.0858 |
| GCGTGGGA | 0.0285 |
| AATACCAG | 0.0286 |
| AACCGCTG | 0.0452 |
| ACGTGTCC | -0.203 |
| CTAGCTGA | -0.0563 |
| TGCGGGAA | 0.0898 |
| AGTTATCC | -0.0306 |
| GAAATTGA | -0.0483 |
